From PubChem BioAssay AID1745853 (National Center for Advancing Translational Sciences (NCATS), 2022)
The other results are listed elsewhere or left out. The main result of the screen is listed elsewhere. These columns were measured beside it and carry no call.

Key:
Experiment in all cases: Primary Screen for Target Class Profiling of Small Molecule Inhibitors of Methyltransferases
[1] = target: Glycine N-methyltransferase (Homo sapiens) (UniProt Q14749); conditions: purified enzyme, MTase-Glo SAH luminescence; measured here: GNMT inhibition; at 40 µM; stronger effect = lower value
Method in brief: (§1)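 Each enzyme was reacted with SAM and its substrate, with compounds tested once at 40 uM; SAH formed was read by MTase-Glo luminescence.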

[2] = target: Guanidinoacetate N-methyltransferase (Homo sapiens) (UniProt Q14353); conditions: purified enzyme, MTase-Glo SAH luminescence; measured here: GAMT inhibition; at 40 µM; stronger effect = lower value
Method in brief: as §1

[3] = target: Histamine N-methyltransferase (Homo sapiens) (UniProt P50135); conditions: purified enzyme, MTase-Glo SAH luminescence; measured here: HNMT inhibition; at 40 µM; stronger effect = lower value
Method in brief: as §1

[4] = target: Nicotinamide N-methyltransferase (Homo sapiens) (UniProt P40261); conditions: purified enzyme, MTase-Glo SAH luminescence; measured here: NNMT inhibition; at 40 µM; stronger effect = lower value
Method in brief: as §1

[5] = target: Phenylethanolamine N-methyltransferase (Homo sapiens) (UniProt P11086); conditions: purified enzyme, MTase-Glo SAH luminescence; measured here: PNMT inhibition; at 40 µM; stronger effect = lower value
Method in brief: as §1
% is set by controls: 0 for no effect and ±100 for the full control effect.

Compound	activity change, negative = inhibition [1]	activity change, negative = inhibition [2]	activity change, negative = inhibition [3]	activity change, negative = inhibition [4]	activity change, negative = inhibition [5]
Cc1cccc(CCNC(=O)CCCc2nnc3n4nc(-c5ccccc5)nc4c4ccccc4n23)c1	2.31%	2.62%	8.09%	10%	3.59%
COc1cncc(Nc2cnc3ccc(-c4ccccc4OC)nn23)c1	-12.7%	-14.1%	-17.9%	-23%	-18.3%
CC1=C(c2ccc(NC(=O)c3c(F)cccc3F)cc2)CN(c2nccs2)CC1	-2.32%	-8.37%	-6.67%	-15.3%	-1.59%
Cn1c(=O)n(CC(=O)NCc2ccc3c(c2)OCO3)c(=O)c2cnc(-c3ccc(Cl)cc3)nc21	0.962%	5.57%	-3.67%	-2.19%	-0.918%
CCOC(=O)c1cc2n(n1)CC(C)(C(=O)NC1CCC(C)CC1)N(c1ccc(F)cc1C)C2=O (stereo not given)	-0.549%	3%	-1.07%	-2.29%	-3.32%
CC1(C)C=CN2C(=O)C3=CCCN3C(=O)[C@@H]2C[C@@]12Nc1ccccc1C2=O	0%	-1.88%	4.5%	-15.3%	-12.2%
CC(=O)Nc1c2n(c3ccc(F)cc13)CC(C)(C(=O)NC1CCCC1)N(C1CCC(C)CC1)C2=O (stereo not given)	-0.011%	-3.18%	2.43%	-10.6%	-4.06%
CC1(C(=O)NC2CCCCC2)Cn2c(cc3occc32)C(=O)N1CCCN1CCCCC1 (stereo not given)	9.23%	0.022%	5.13%	14.9%	5.76%
Nc1ncnc2c1c(-c1cccc(OCc3ccccc3)c1)cn2C1CC(CN2CCC2)C1 (stereo not given)	-80.7%	-52.1%	-95%	-77.1%	-97.9%
O=C(NCCc1cccs1)c1nnc(-c2ccc(S(=O)(=O)N3CCCC3)cc2)o1	-3.26%	-0.836%	-3.78%	-11.1%	-7.78%
CNc1cc(OC)c(C(=O)N[C@@H]2CCN(Cc3ccccc3)[C@@H]2C)cc1Cl	-1.46%	2.27%	2.18%	-16.5%	-7.78%
CC1(C(=O)NC2CCCC2)Cn2c(cc3ccccc32)C(=O)N1Cc1cccc(F)c1 (stereo not given)	1.04%	3.03%	3.61%	-13.6%	-3.66%
CCNCc1nc2c(N)nc3ccccc3c2n1CC(C)(C)O	1.09%	3.83%	-7.61%	-14.8%	3.3%
CN1CC(=O)N(C2CCCC2)Cc2c(NC3CCCC3)ncnc21	-3.21%	-1.5%	-7.99%	-12%	-1.47%
Cn1c(=O)c2ccc(C(=O)NC3CCCCC3)cc2n2c(=O)n(CC(=O)c3cccc(Cl)c3)nc12	-0.137%	-2.71%	0.08%	11.5%	-1.74%
CCNc1ncc(C(=O)NC2CC(c3nnc(CO)n3CC)C2)cn1 (stereo not given)	-7.51%	-14.4%	-5.41%	-10.2%	-9.26%
CC(=O)Nc1ccc(Nc2nc3c(S(=O)(=O)c4ccc(C(C)C)cc4)nnn3c3ccccc23)cc1	-3.44%	0%	4.03%	0.169%	-4.28%
CCOC(=O)c1ccccc1NC(=O)N1CCn2c(C)ccc2C1CC (stereo not given)	-6.13%	3.39%	6.74%	-2.08%	-4.88%
Cc1ccc(NC(=O)N2CCn3cccc3C2Cc2ccccc2)cc1F (stereo not given)	-11.4%	-9.86%	-12.3%	-11%	-11.1%
Cc1cccc(Nc2nc(N)nc(CN3CC[C@@](O)(C4CCC4)[C@H](C)C3)n2)c1	-0.229%	-0.986%	-7.13%	-7.98%	-12.3%
